Data on 120 sequences can be found in the supplement of paper PMC10126150.

Sequences with one replicate were seen in a single cluster, so their values are uncertain.
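Note: ATP exposure 15 min at 22 °C before imaging.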

The data set concerns ATP. In words: switch fluorescence ratio, 500 uM ATP over buffer (Cy3 cluster intensity, sum of 5 cycles each) (fold (ratio)); higher = stronger signal-on switching upon ATP binding; sequences stand for … in TCGTCGGCAGCGTCAGATGTGTATAAGAGACAGTTTTTTTTTTTTTTTTTTTTTTTTT…TC. To be noted: aptamer strand: ATP DNA aptamer (quencher-CACCTGGGGGAGTATTGCGGAGGAAGG + anchor), 100 nM annealed; ATP concentration: 500 uM; one replicate. The procedure, abridged:
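Between each of five buffer/ATP cycles, the flow-cell was stripped with NaOH and re-annealed. Each cycle imaged Cy3-labelled switching-strand clusters, annealed to 100 nM quencher-labelled ATP aptamer on a modified Illumina MiSeq flow-cell, first in selection buffer and then after 15 min with 500 uM ATP at 22 °C. The fluorescence ratio is summed target-cycle over summed buffer-cycle Cy3 intensity per cluster, averaged per switch-domain sequence, with clusters outside 100-1000 RFU excluded.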
On to GAATTGTGCT, for which the switch fluorescence ratio was 0.952. The value for ATGCCGCTGA was 1.01; that for TCGTACTCTG was 0.97; that for GGACTATCGT was 0.954. To TTTCACCTTA belongs 1.07; to GGGTATTGAA, 0.956; to TCTTTCTGAG, 1.02. To GCAAGACGCA belongs 1.73; to GCAGCGTCTT, 0.987.

For GGCATAAGGT, the switch fluorescence ratio is 1.22. To TTCGAAGTGG belongs 1.29. On to CATAGTTGTA, for which the switch fluorescence ratio came out at 0.977.

As to TAGAGTAGGG, the switch fluorescence ratio was found to be 0.961. To TCGGTTTTTG belongs 0.917; to ATGTAGGGAC, 1.04; to CGTATCTCAC, 0.996. CAGGTGGCGG: the switch fluorescence ratio amounted to 0.986. TCGGGGAGCT: the switch fluorescence ratio amounted to 0.955. The value for GGCGATATCG was 0.926. GGGGTGGCTC: the switch fluorescence ratio turned out to be 0.994. To ACTGTCGATC belongs 1; to CAAGCAGACG, 1.08. GGTACGATCA: the switch fluorescence ratio was 1.05. The value for CCCTGGGGT was 1.02; that for CTTAAGGTAA was 1.01. The value for CCAAACTCGC was 1.06; that for ATGATAATGA was 1.01; that for GAATACCAAT was 0.973. With TTGAGGAGTG, the switch fluorescence ratio is 1.01. To TCAAGTCGTT belongs 0.984; to CAGCGAGATG, 1.04; to AACATTCAAT, 1.01. The value for ATACTCTCAG was 1. The value for AGAGTGCAAA was 1.01; that for GGACAATGAA was 1.02. Regarding GCGAGGAGGG, the switch fluorescence ratio came out at 0.988. To TGTCTGTTA belongs 1.07; to TTCAGACTCG, 1.05; to GTGCACATGT, 1.05.

As to TTGCGTAT, the switch fluorescence ratio was determined as 0.998.

Turning to TAGGTAATGC, the switch fluorescence ratio was found to be 1.39. The value for GAGGGGCCTT was 1.03; that for ACGCATGTTA was 1.04. For the sequence TTGTTAGCGT, the switch fluorescence ratio was found to be 0.979.

As to TTTATGACTC, the switch fluorescence ratio was 0.986. The value for ATGTCTATCC was 1.02; that for CTCTGAATGC was 3.26.

On to AACAATCCTT, for which the switch fluorescence ratio stood at 1.02.

With CATGATCAAA, the switch fluorescence ratio is 0.979. The value for GCAGCATGGT was 1.12. The value for GGAGTAATTG was 1.15. To TTGTTACCGT belongs 0.988. For GAGCGCTAGT, the switch fluorescence ratio was 1.01. The value for TGTCAGCTCT was 0.957. To ATTTTTGATA belongs 1.01; to TATCCTTTTC, 1; to GTTGGGGACT, 1.03. To GGGCGTTGCA belongs 1.01; to GATCAAGC, 0.982. On to TATTCGCTT, for which the switch fluorescence ratio stood at 0.934.

Consider AGAATTAGAA, for which the switch fluorescence ratio was determined as 0.967. The value for AGTGAGTACC was 1.01. The value for GTTCTATTAG was 0.997; that for ATACAAGTCC was 1.01; that for CCCCACACGC was 2.12.

In the case of GAGCTAGGAC, the switch fluorescence ratio was 1.06. The value for GTATATACTT was 1.03; that for ACGTACTCCT was 1.41; that for CGCTAAAAAG was 1.07. The value for GGGGGGACCA was 0.978. To CGAATGGCTT belongs 1.12; to GTCGTATTGC, 1.03; to TCGGTACTGG, 0.953.

As for ACGGTTCAAA, the switch fluorescence ratio stood at 1.01.

As to TCCGGAGGG, the switch fluorescence ratio was found to be 1.06.

With TTGTCCATTA, the switch fluorescence ratio was found to be 0.998. The value for TGGATGTGTT was 1.

With TACCGTGTAC, the switch fluorescence ratio worked out at 1.01. To GTGCTTTGC belongs 1.07; to TGGTAACAGT, 0.964. GGCCACCAAT: the switch fluorescence ratio was 1.

Take AGAGCAACCG: the switch fluorescence ratio was 1. To ATTCCGGTTT belongs 1.02. The value for GTGGATGCAA was 1.02; that for TTGCCAGGGG was 0.997; that for GCCATTTCAC was 0.988.

On to CGCAAAAGA, for which the switch fluorescence ratio is 1.16. In the case of GTAATGCCTT, the switch fluorescence ratio amounted to 1.

In the case of CTGTTCGATG, the switch fluorescence ratio stood at 0.951. In the case of TCTTCGACTT, the switch fluorescence ratio amounted to 1.05. The value for GATCCTTTGG was 1.08. To GCTCCGTGCG belongs 1.43; to TATCTGCTGC, 1.09; to TCCGCCATTT, 1.55.

Turning to TTGCTGTAAC, the switch fluorescence ratio was 1. The value for TGGAGTCGAG was 1.05; that for TTTATACGTC was 0.988.

For the sequence TAGAGGACA, the switch fluorescence ratio amounted to 1.02. The value for AGGCTAATGT was 0.98; that for GTGGGAGAGA was 0.955. To ACGTGGGTTT belongs 0.963. Take GAAGCGTGAC: the switch fluorescence ratio was 2.06.

For CGATAATGTT, the switch fluorescence ratio stood at 1.01. To TTGAAGTCCC belongs 1.02. In the case of ATTTAATGAG, the switch fluorescence ratio is 0.976. Take GCGGGTTCAG: the switch fluorescence ratio was found to be 1. With CACCGAGTGT, the switch fluorescence ratio worked out at 1.05.

Take TCTAACGGAG: the switch fluorescence ratio stood at 1.05. The value for AAGGCGTAAA was 0.985; that for CTGTTGCTTC was 0.993; that for GGTTTACAG was 1.06. The value for AGCCCATGTT was 1; that for GCTGAACACT was 1.01; that for AAAAGAGATC was 0.961. To ATAGTTTCA belongs 1.04. For TATATCAA, the switch fluorescence ratio turned out to be 1.03. As to GCCGGCCTAC, the switch fluorescence ratio turned out to be 1.03. To TCATTGGGAT belongs 0.976; to GATCCACATG, 1.06. The value for CAGAGCCTTC was 1.01.
